Drawing on article PMC12136788, this text covers binding signal for 22 molecules.

T1: UNK ZnF1-3 (human, UniProt Q9C0B0 31-174)
T1 sequence: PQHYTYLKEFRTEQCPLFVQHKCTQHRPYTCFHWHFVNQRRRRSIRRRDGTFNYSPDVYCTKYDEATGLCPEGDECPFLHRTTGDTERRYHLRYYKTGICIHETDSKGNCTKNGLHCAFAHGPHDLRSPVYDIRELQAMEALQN

B1: chr16:53361121:53361122:+_ENSG00000177200_ENST00000398510|hu_hu|FALSE|FALSE (ssRNA)
RNA: GGGAGUUCUACAGUCCGACGAUCAAACCUGAAACAAGGGCUAUAAAUACAAGGCAAUAACAGCUAUAAUUCUUUUAGUAACUACCAACACAUACUUGGAUAUUCUUUCAACUGCAACUUUAGUAUUAUGUAAUUCUACUGAUUCAACAGAGGAUUGAGCAUCA
B2: chr9:82769708:82769709:-_ENSMUSG00000032253_ENSMUST00000034787|mus_mus|motif|central (ssRNA)
RNA: GGGAGUUCUACAGUCCGACGAUCAAAAGCUUUUGUGGCUGAUGAUGUAGAGGGCUGCUCGGUGACAACUGGAUCGGCAGCGGCACGGUUGCUCCUAGUUCGAACCACAGAACUGGAUUCUGGUUUACCAUUCAUUUGCGCAGCCAACAGAGGAUUGAGCAUCA
B3: chr2:48035047:48035048:-_ENSG00000138081_ENST00000403359|hu_mus|motif|central (ssRNA)
RNA: GGGAGUUCUACAGUCCGACGAUCCAAAAUUGCAGCUUAUUUCUUCACUUCUGUCCCUUCAAAAGUCUUUACGCAGUAAUGCGGAAAUCCCGAGCUCUGACAUCCUGAGUCAAUCUAUUGCCACUUCCUUUUUGGUAGCUUGAGCAACAGAGGAUUGAGCAUCA
B4: chr14:76904430:76904431:+_ENSMUSG00000022010_ENSMUST00000022587|mus_mus|mus_mus_mus_hu_True|68_108 (ssRNA)
RNA: GGGAGUUCUACAGUCCGACGAUCUGCUGGAAAAAAAACCCUCGUGGAAAAAAAGAGGGAACACCAGCAGCCUGGUUUAAGCUAGAUAAAAUCUUCUGGCUUUCCGCAGCCCAGGGAGAAACAGAAAACGGCAGCCCUAAUUUACAACAGAGGAUUGAGCAUCA
B5: chr10:112364808:112364809:-_ENSMUSG00000074748_ENSMUST00000099276|mus_mus|FALSE|FALSE (ssRNA)
RNA: GGGAGUUCUACAGUCCGACGAUCCAGUAGGAUGGAAAGACAGGUCUUCUGAUGAGCCAAAGGCAAGGCCUUGUCCCCACAAAAUGCUGGACCUUUGGAAAACAGGUGAUUUGGAACUUCUUGAAGACAAGGGCACAAGGGCUUCAACAGAGGAUUGAGCAUCA
B6: chr1:157130520:157130521:-_ENSMUSG00000026469_ENSMUST00000027741|mus_hu|FALSE|FALSE (ssRNA)
RNA: GGGAGUUCUACAGUCCGACGAUCUGCGUUCAGGGGGGCCACAGAGAUGUCCCGCACAGCACGGAAUUCACCACAGUUAUUCAGAUGUUCAUUCUCCAGGCGGAAGAAGUUCCACACAAAUCGCCGGAAAACCUCAAGUGGGGCCAACAGAGGAUUGAGCAUCA
B7: chr14:76904568:76904569:+_ENSMUSG00000022010_ENSMUST00000022587|mus_hu|FALSE|FALSE (ssRNA)
RNA: GGGAGUUCUACAGUCCGACGAUCGUUUUCAGUCCCCAGCAAGGAUGACAAGAAAGAAAUUGAAAAAUGUCUCAGUUGGUAAACUCCUAGAUCCAUCGCCACUGGUCUACACCAUUGGGAUUUCAUGCAAUUGCAGCCAAAAACCAACAGAGGAUUGAGCAUCA
B8: chr2:198351390:198351391:-_ENSG00000144381_ENST00000345042|hu_hu|hu_hu_hu_mus_False|68_68 (ssRNA)
RNA: GGGAGUUCUACAGUCCGACGAUCUCAUUCCCACCCUCCACAGAAAGGCUGCUUCUGAACUCUCAUGGUGGUGGCAAGCGCUACAGUCCUGAUGCUCACAGAACAGUAGAGAUGCCUCAGUGAUUUAAGUUGAAAGCAGGACACCAACAGAGGAUUGAGCAUCA
B9: 121250362_121252434_672_CDS_ENSMUSG00000027248_ENSMUST00000028683|mouse|control|control (ssRNA)
RNA: GGGAGUUCUACAGUCCGACGAUCCACUGAGGCAUCUUUAUCACUAAUGAACUUCUUAAAUUCUUCCUCAGUCCUGAGAGGAACUGAAGCUGGUCCUGCUUGUUUCUUCAAGUGGCUGACAAUUCCAUCAGCAGUCCUAGGCCCCAACAGAGGAUUGAGCAUCA
B10: chr22:19452774:19452775:-_ENSG00000070010_ENST00000399523|hu_hu|hu_hu_hu_mus_False|48_68 (ssRNA)
RNA: GGGAGUUCUACAGUCCGACGAUCCUUCUCAUUGUAGUUGAUAGCAAUCACAUCUCCAGUCGUCAGACAGGCAAAGUUUCUCAAUGCGUUUUCUAAUACCGCUUUAGGGUUGGUAAUAUCCAGGAAGUCUGGGCUCUGAGGCUGCAACAGAGGAUUGAGCAUCA
B11: chr1:220276048:220276049:+_ENSG00000067704_ENST00000302637|hu_hu|hu_hu_hu_mus_True|8_68 (ssRNA)
RNA: GGGAGUUCUACAGUCCGACGAUCGCAAAUUGCCUGGUUGGCGGGAAUUGUCCAAGGCUGGGUGGUCCAGACCAAAACGCUAACAGGGGAUGAGGCAUCUGUAAGAGACUCCAACUUCGGAGGAGGUUUUAAGAGAGGGAAUCUCAACAGAGGAUUGAGCAUCA
B12: chr21:34924512:34924513:+_ENSG00000159140_ENST00000381679|hu_hu|FALSE|FALSE (ssRNA)
RNA: GGGAGUUCUACAGUCCGACGAUCAGAUGACAUCAUGGAACGUUCUGCAGCAUAGGACAUCAUCAUAGAACGUCUAGAUGCUAACAUCAGGGGUCUAGGUGCUAACCUAUAUGGCCUGGGUGCUAUUCUAUAGGACCUGGGUGCCAACAGAGGAUUGAGCAUCA
B13: chr12:69047915:69047916:+_ENSG00000127314_ENST00000393436|hu_hu|motif|central (ssRNA)
RNA: GGGAGUUCUACAGUCCGACGAUCCUGUUCUCUCAGGUCUUGUAAAUCGUUAAAUGUGGACUGUGCUGUGAUGGAAUAAACGGAUGCAAAUCCUUGUCCAUUUUUCAUGUAUAAAUCCCUCAUUGCUGUAAAUUGCUCCGUUCCCAACAGAGGAUUGAGCAUCA
B14: chr11:52220846:52220847:+_ENSMUSG00000036275_ENSMUST00000036952|mus_hu|motif|central (ssRNA)
RNA: GGGAGUUCUACAGUCCGACGAUCAAAAGUAGCAUCACUAAUACUUCCAGAAGAAGCAUAAUAAAUCUAAAACAAUAAAAACGGACAGUGUAAAUAUAAGGUAAUGUUUAACUCACAUUUUGGACACCUGAUUAAACUCAGCUCCAACAGAGGAUUGAGCAUCA
B15: chr1:220276048:220276049:+_ENSG00000067704_ENST00000302637|hu_hu|hu_hu_hu_mus_True|68_88 (ssRNA)
RNA: B11 RNA with U48C, U127C, U129C, A131G, A135G
B16: chr3:41266445:41266446:+_ENSG00000168036_ENST00000349496|perfect_dup|FALSE|FALSE (ssRNA)
RNA: GGGAGUUCUACAGUCCGACGAUCCAUGGCAGCUCGGACCCUCUGAGCCCUAGUCAUUGCAUACUGCCCGUCAAUAUCAGCUACUUGCUCUUGCGUGAAGGACUGGGAAAAGCCUUGCUCCCAUUCAUAAAGGACUUGGGAGGUCAACAGAGGAUUGAGCAUCA
B17: chr3:148802587:148802588:-_ENSG00000071794_ENST00000310053|hu_mus|hu_hu_hu_mus_False|28_28 (ssRNA)
RNA: GGGAGUUCUACAGUCCGACGAUCUCCAACAACUUGUCCUCUCAUAGUUCCAAAUAAAACCAAAUCUUGCUCUUCAUCACUCGUUAGGAAGUCAUCUGGAGGAAUAACAUCUUGGAAUUCAAAAUGUGGCAAGAAAGUUGAGUACAACAGAGGAUUGAGCAUCA
B18: chr7:97319096:97319097:+_ENSMUSG00000039361_ENSMUST00000049537|mus_mus|FALSE|FALSE (ssRNA)
RNA: GGGAGUUCUACAGUCCGACGAUCAUCUUUGAAGAGGAGCAUGAAGGCAGCAUUUAUUACCCCAUUUGUAAGUUCAUUACUAUUAACAUUAAAAUCAAGAAGUGCAUCCAUUUGAUUUUGGAUAAUUGGUACAGUUUUUAAGAGCAACAGAGGAUUGAGCAUCA
B19: chr1:235599081:235599082:+_ENSG00000116957_ENST00000366601|hu_hu|FALSE|FALSE (ssRNA)
RNA: GGGAGUUCUACAGUCCGACGAUCCAGGUGGGCUAUCAGAUACAGCUGAUUUUCAUCAAUUAAUUGAUUAGAGGAAAGAUCUAAUAACUUGACUGUCUGGAGAACAUCUGUUGGCCUUUCGGAAAUGAAAAUGUUGUUAGACUCCAACAGAGGAUUGAGCAUCA
B20: chr3:179287964:179287965:+_ENSG00000136518_ENST00000429709|hu_hu|hu_hu_hu_mus_True|1_58 (ssRNA)
RNA: GGGAGUUCUACAGUCCGACGAUCCUUGAGUGGUGAGAUGGCCUCCAUGUUCUCCCUGGGCACGCGGAGGGCAUUGGUAUCUAUGUAGUAGGUGGGCCCGCCCUGCUUGCCUUUGUCACCAUCAAUCUCCAUCAUUGUGCUUCCCAACAGAGGAUUGAGCAUCA
B21: chr12:48538843:48538844:+_ENSG00000152556_ENST00000359794|hu_mus|FALSE|FALSE (ssRNA)
RNA: GGGAGUUCUACAGUCCGACGAUCCUCCUUGAUUUUCCCAGACAUCCAGUUCAUAGCCUUAGCACCCAUCUUAGUGGCAAAAUUCCUGUCAAAGGGAGUUGGGCUUCCACCCUGCUGCAUGUGGCCAAGCACGUUCUUCCUGCUCAACAGAGGAUUGAGCAUCA
B22: chr16:44739181:44739182:-_ENSMUSG00000022668_ENSMUST00000162512|mus_hu|FALSE|FALSE (ssRNA)
RNA: GGGAGUUCUACAGUCCGACGAUCAACAGGUUUUCAUUUUAUGGAUGUGCUCUUGUCAGUUUGUUAAAAUAGGGGAAUCAGCUAGUAGCUGUUCUAAUGAACACCAUAAUUCAAUAACUUACAAACUUUUUUCACCUCAGGCACCAACAGAGGAUUGAGCAUCA

Where a chain is given by its changes, count along the chain named. Some of the results follow.

For this assay, the target named is T1, UNK ZnF1-3. The experiment in a line: nsRBNS (natural sequence RNA bind-n-seq); RBNS binding buffer (assumed for nsRBNS): 25 mM Tris pH 7.5, 150 mM KCl, 3 mM MgCl2, 0.01% Triton X-100, 500 ug/ml BSA, 20 U/ml SUPERase-In, 4 C; UNK is unkempt and MSI1 is Musashi-1; names of the RNAs are library labels; protein concentration not given here; high values mean tight binding.
In turn, B1 came in with a binding signal of 1.05 enrichment R.
Regarding B2, the binding signal came out at 0.902 enrichment R.
To B3 belongs 0.508 enrichment R; to B4, 1.72 enrichment R; to B5, 1.39 enrichment R.
The value for B6 was 1.18 enrichment R.
In the case of B7, the binding signal turned out to be 1.4 enrichment R.
B8 gave a binding signal of 1.24 enrichment R.
With B9, the binding signal stood at 0.835 enrichment R.
The value for B10 was 0.861 enrichment R.
As to B11, the binding signal stood at 1.89 enrichment R.
To B12 belongs 0.804 enrichment R.
To B13 belongs 0.941 enrichment R.
As for B14, the binding signal is 2.51 enrichment R.
For B15, the binding signal turned out to be 1.37 enrichment R.
In turn, B16 gave a binding signal of 0.798 enrichment R.
Take B17: the binding signal stood at 1.39 enrichment R.
To B18 belongs 2.04 enrichment R; to B19, 1.61 enrichment R; to B20, 0.674 enrichment R.
To B21 belongs 0.843 enrichment R.
B22 had a binding signal of 1.31 enrichment R.
